Results are given in words; binding and its absence hold for the method and conditions named. In cells and extracts the contact can be indirect. Some results given as binding are weak or reduced against the parent protein; the word gives no strength. Tags and fused reporters may be left off the sequences shown.
T1: Flag-RalA Q72L (human) (UniProt P11233)
T1 sequence: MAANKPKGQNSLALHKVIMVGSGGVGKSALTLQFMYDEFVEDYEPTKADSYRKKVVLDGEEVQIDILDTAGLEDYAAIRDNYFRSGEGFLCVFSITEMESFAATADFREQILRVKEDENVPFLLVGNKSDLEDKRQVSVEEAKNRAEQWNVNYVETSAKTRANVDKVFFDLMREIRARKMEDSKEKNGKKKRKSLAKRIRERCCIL

T2: Flag-RalA S28N (human) (UniProt P11233)
T2 sequence: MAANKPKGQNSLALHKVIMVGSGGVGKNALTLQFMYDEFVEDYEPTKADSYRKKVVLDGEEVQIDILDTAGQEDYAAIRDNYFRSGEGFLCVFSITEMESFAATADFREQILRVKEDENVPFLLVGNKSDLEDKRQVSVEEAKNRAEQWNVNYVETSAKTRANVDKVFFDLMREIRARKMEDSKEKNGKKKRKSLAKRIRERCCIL

T3: Flag-RalB Q72L (human) (UniProt P11234)
T3 sequence: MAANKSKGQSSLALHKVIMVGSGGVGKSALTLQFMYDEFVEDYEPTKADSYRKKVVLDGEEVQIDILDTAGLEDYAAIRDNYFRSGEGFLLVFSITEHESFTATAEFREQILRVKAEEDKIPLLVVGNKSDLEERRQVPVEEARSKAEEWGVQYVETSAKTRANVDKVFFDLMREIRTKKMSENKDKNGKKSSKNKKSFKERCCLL

T4: Flag-RalB S28N (human) (UniProt P11234)
T4 sequence: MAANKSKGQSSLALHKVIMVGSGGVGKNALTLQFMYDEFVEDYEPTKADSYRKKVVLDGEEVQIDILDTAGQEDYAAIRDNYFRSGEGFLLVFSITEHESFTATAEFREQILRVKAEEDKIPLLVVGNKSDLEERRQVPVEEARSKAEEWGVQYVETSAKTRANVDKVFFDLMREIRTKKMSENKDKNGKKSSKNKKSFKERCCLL

T5: Flag-tagged W2 domain of BZW2 alone (human) (UniProt Q9Y6E2)
T5 sequence: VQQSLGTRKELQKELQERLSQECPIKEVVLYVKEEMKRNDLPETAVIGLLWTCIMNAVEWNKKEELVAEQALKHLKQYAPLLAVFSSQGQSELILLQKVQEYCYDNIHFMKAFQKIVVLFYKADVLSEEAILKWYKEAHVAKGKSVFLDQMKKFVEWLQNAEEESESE

T6: Flag-tagged basic leucine zipper and W2 domain-containing protein 2 (BZW2) (human) (UniProt Q9Y6E2)
T6 sequence: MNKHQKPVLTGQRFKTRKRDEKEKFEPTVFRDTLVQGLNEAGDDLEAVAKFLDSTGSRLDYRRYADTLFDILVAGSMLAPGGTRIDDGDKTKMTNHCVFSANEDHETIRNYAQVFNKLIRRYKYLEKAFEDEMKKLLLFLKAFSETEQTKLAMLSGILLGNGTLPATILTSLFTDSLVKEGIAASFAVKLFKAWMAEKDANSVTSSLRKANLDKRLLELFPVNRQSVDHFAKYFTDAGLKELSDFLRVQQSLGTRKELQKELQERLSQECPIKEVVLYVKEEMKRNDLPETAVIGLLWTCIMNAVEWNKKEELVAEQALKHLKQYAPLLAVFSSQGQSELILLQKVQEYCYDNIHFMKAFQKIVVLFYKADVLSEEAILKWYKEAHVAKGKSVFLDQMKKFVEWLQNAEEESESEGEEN


Assays:
Experiment in all cases: co-IP; Flag-tagged protein expressed in HEK293; lysis in 1% NP40, 25 mM Tris-HCl pH 7.4, 150 mM NaCl, 10% glycerol; anti-FLAG M2 affinity gel, three washes with 0.2% NP40 buffer; partners detected by Western blot
[1] = target: T1, Flag-RalA Q72L (human)
[2] = target: T2, Flag-RalA S28N (human)
[3] = target: T3, Flag-RalB Q72L (human)
[4] = target: T4, Flag-RalB S28N (human)
[5] = target: T5, Flag-tagged W2 domain of BZW2 alone (human)
[6] = target: T6, Flag-tagged basic leucine zipper and W2 domain-containing protein 2 (BZW2) (human)

Row | binding [1] | binding [2] | binding [3] | binding [4] | binding [5] | binding [6] | Binder
1 | binds | binds | no binding | no binding | – | – | BZW2 as detected in the immunoprecipitates of the Flag-tagged Ral mutants (protein, UniProt Q9Y6E2 1-419) MNKHQKPVLTGQRFKTRKRDEKEKFEPTVFRDTLVQGLNEAGDDLEAVAKFLDSTGSRLDYRRYADTLFDILVAGSMLAPGGTRIDDGDKTKMTNHCVFSANEDHETIRNYAQVFNKLIRRYKYLEKAFEDEMKKLLLFLKAFSETEQTKLAMLSGILLGNGTLPATILTSLFTDSLVKEGIAASFAVKLFKAWMAEKDANSVTSSLRKANLDKRLLELFPVNRQSVDHFAKYFTDAGLKELSDFLRVQQSLGTRKELQKELQERLSQECPIKEVVLYVKEEMKRNDLPETAVIGLLWTCIMNAVEWNKKEELVAEQALKHLKQYAPLLAVFSSQGQSELILLQKVQEYCYDNIHFMKAFQKIVVLFYKADVLSEEAILKWYKEAHVAKGKSVFLDQMKKFVEWLQNAEEESESEGEEN
2 | – | – | – | – | binds | binds | BCAP31 (protein, UniProt P51572 1-246) MSLQWTAVATFLYAEVFVVLLLCIPFISPKRWQKIFKSRLVELLVSYGNTFFVVLIVILVLLVIDAVREIRKYDDVTEKVNLQNNPGAMEHFHMKLFRAQRNLYIAGFSLLLSFLLRRLVTLISQQATLLASNEAFKKQAESASEAAKKYMEENDQLKKGAAVDGGKLDVGNAEVKLEEENRSLKADLQKLKDELASTKQKLEKAENQVLAMRKQSEGLTKEYDRLLEEHAKLQAAVDGPMDKKEE

From publication PMC10835002
